# Results taken from PubChem BioAssay AID686971 (National Center for Advancing Translational Sciences (NCATS), 2013).
# Screen size: about 360,000 compounds; about 7,500 (2.1%) were called active. This list was built around the results that the source calls inconclusive (neither active nor inactive); the mix of calls is not that of the screen. Calls follow the shape of the dose curve; as a rule, active = well fitted cell-killing curve with a large enough effect; inconclusive = small, poorly fitted or top-dose-only effect, or effect the other way, or another doubt; inactive = no such curve, though single readings can be large or run the other way. Potencies of inconclusive entries are left out as doubtful fits.
# Assay: qHTS for induction of synthetic lethality in tumor cells producing 2HG: qHTS for the HT-1080-IDH1KD cell line;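 as to activity, negative = toxicity: 0% = DMSO wells and -100% = cell-free medium wells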
# Details: HT-1080 IDH1 knockdown viability, ATP luminescence, 48 h; activity, negative = toxicity: at 46.1 µM (top of the series) unless noted
# Method in brief: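 Cytotoxicity counter-line: IDH1KD HT-1080, 48 h, CellTiter-Glo. Curves classed by r2, magnitude and activity.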
# Potency is read from the fitted curve at half-maximal effect; tags tell the direction and shape of the fitted curve.
SMILES,Potency,"activity, negative = toxicity"
S=C(NCc1cccnc1)Nc1ccc(Cl)c(Cl)c1,"inconclusive [cytotoxic, single point]",
CCO[C@H]1OC(C(=O)Nc2ccccc2)=C[C@@H](c2ccc(C(F)(F)F)cc2)[C@@H]1CCCO,"inconclusive [cytotoxic, single point]",
CC(NC(=O)c1ccc(NC(=O)CC2SC(N3CCCC3)=NC2=O)cc1)c1ccc(S(N)(=O)=O)cc1 (configuration not stated),inactive,
CCNC(=O)C1(C)CCCN(Cc2cccc3c2OCCO3)C1 (configuration not stated),inactive,
CCOC(=O)c1oc2ccccc2c1NC(=O)c1cccc(OC)c1OC,"inconclusive [cytotoxic, single point]",
COc1ccc(C(=O)/C=C/Nc2ccccn2)cc1,"inconclusive [cytotoxic, full curve]",
COc1ccc(Br)cc1C(=O)NC(=S)Nc1ccc(CN2CCOCC2)cc1,"inconclusive [cytotoxic, single point]",
O=C1NC(=O)C(=Cc2ccccc2[N+](=O)[O-])S1,"inconclusive [cytotoxic, partial curve]",
COc1ccc(C(C)(O)c2nc(-c3ccc(F)c(Cl)c3)cs2)cc1 (configuration not stated),"inconclusive [cytotoxic, single point]",
Cc1ccc(-c2nn(-c3ccccc3)cc2C=C2C(=O)CC(C)(C)CC2=O)cc1,"inconclusive [cytotoxic, single point]",
Cc1nonc1NC(=O)c1ccc(Cl)c(S(=O)(=O)N2CCCCC2)c1,"inconclusive [cytotoxic, single point]",
COc1ccc(Br)cc1CN(C)CC(O)COc1ccc(Br)cc1 (configuration not stated),"inconclusive [cytotoxic, partial curve]",
CC(C)[C@H](NC(=O)N1c2ccccc2NC(=O)[C@@H]1C(C)C)C(=O)N1CCC(C(=O)O)CC1,inactive,
COc1ccccc1NC(=O)c1c(N=Cc2c(O)ccc3ccccc23)cnn1C,active: 5.8 µM,
O=c1[nH]cc(NCCNc2ncc(C(F)(F)F)cc2Cl)c(=O)[nH]1,inactive,
COc1ccc(N2CCN(C(=O)c3cccc(N4C(=O)C5C6C=CC(C6)C5C4=O)c3)CC2)cc1 (configuration not stated),inactive,
CCOC(=O)CCc1ccc(NC(=O)/C=C/c2ccc([N+](=O)[O-])o2)cc1,active: 2.91 µM,
O=C(NCCCn1ccnc1)/C(=C\c1ccc(Br)cc1)NC(=O)c1ccccc1F,inactive,
NNC(=O)c1ccc(CSc2nc3ccccc3s2)cc1,"inconclusive [cytotoxic, partial curve]",
CSc1nc(Oc2ccc3ccccc3c2)c2sccc2n1,,inconclusive: -6.75% [cytotoxic]
Cc1cc(C)nc(-n2nc(C)cc2NC(=O)CN2CCCC(C)C2)n1 (configuration not stated),active: 2 µM,
COc1ccc(S(=O)(=O)Nc2cc3c4c(c2)CCN4C(=O)CC3)cc1C,inactive,
O=[N+]([O-])c1ccc(O)c(/C=N/Nc2nc3ccccc3[nH]2)c1,"inconclusive [cytotoxic, partial curve]",
O=c1oc2ccccc2c2c1nc(C(F)(F)F)n2-c1ccccc1,inactive,

SMILES,Potency,"activity, negative = toxicity"
COc1ccc(C(=O)C(C)[n+]2ccc(C)c3ccccc32)cc1[N+](=O)[O-] (configuration not stated),inactive,
CCOC(=O)CN1C(=O)S/C(=C\c2ccc(-c3ccc(C(=O)O)c(Cl)c3)o2)C1=O,inactive,
O=C(N/N=C/c1ccccc1)C(O)c1ccccc1 (configuration not stated),inactive,
C[C@]12C=CC(=O)C=C1CC[C@@H]1[C@@H]2[C@@H](O)C[C@@]2(C)[C@H]1CC[C@]2(O)C(=O)COC(=O)CCC(=O)NCCc1ccc(O)cc1,"inconclusive [rising, full curve]",
COC(=O)c1cccc(NS(=O)(=O)c2cccs2)c1C,inactive,
CCOC(=O)C1=CC[C@@H](c2ccccc2)N(S(=O)(=O)c2ccc(C)cc2)[C@H]1c1cccc(OC)c1,inactive,
CC(O)(c1cccc(F)c1)c1nc(-c2ccncc2)cs1 (configuration not stated),"inconclusive [cytotoxic, single point]",
CCOC(=O)c1ccsc1NC(=O)c1ccco1,inactive,
O=C(Nc1nc2ccc(C(=O)N3CCCCC3)cc2s1)C1CCCCC1,"inconclusive [cytotoxic, partial curve, poor fit]",
COc1ccc(CNc2nc(SCC(=O)NCc3ccco3)nc3ccccc23)cc1,"inconclusive [cytotoxic, single point]",
COc1ccc(-c2c(C(=O)c3ccc(Br)cc3)[nH]c(N)c2C(=O)c2ccccc2)cc1OC,"inconclusive [rising, partial curve]",
OCCNc1c2ccccc2nc2ccccc12,active: 23.1 µM,
COc1ccc(C2CC(c3c(O)cc(C)oc3=O)=NCCS2)c(OC)c1 (configuration not stated),active: 1.3 µM,
Cc1ccc(N(C(=O)CCl)C(C(=O)NC2CCCCC2)c2cccnc2)cc1C (configuration not stated),active: 1.64 µM,
CC(C)(C)c1ccc(C(=O)N2CCC(=O)N([C@H](COCc3ccccc3)Cc3ccccc3)CC2)cc1,"inconclusive [cytotoxic, single point]",
CCN(CC)c1ccc(/C=N/NC(=O)c2ccc3nc[nH]c3c2)c(O)c1,active: 2.06 µM,
C/C(=N\O)C(C)NC(=O)c1ccccc1 (configuration not stated),inactive,
Fc1ccc(Cn2c(SCc3ccc(F)c(F)c3)nnc2C(F)(F)F)cc1,"inconclusive [cytotoxic, single point]",
Cc1cc(C(F)(F)F)nc(CCNC(=O)C2CCC(=O)N(Cc3cccc(F)c3)C2)n1 (configuration not stated),inactive,
Fc1ccc(F)c(C2=NNC(=Nc3ccccc3F)SC2)c1,"inconclusive [cytotoxic, single point]",
COCCN(C(=O)COC(=O)CCCOc1ccc(OC)cc1)c1c(N)n(Cc2ccccc2)c(=O)[nH]c1=O,inactive,
O=C(Cc1ccc([N+](=O)[O-])cc1)N/N=C/c1ccc([N+](=O)[O-])o1,"inconclusive [cytotoxic, single point]",
O=C(Nc1nc(-c2ccccn2)cs1)c1ccc(Cl)s1,active: 4.11 µM,
